Assay results published in the supplement of paper PMC10126150.
Sequences with one replicate were seen in a single cluster, so their values are uncertain.

Test system: ATP
Assay: switch fluorescence ratio, 500 uM ATP over buffer (Cy3 cluster intensity, sum of 5 cycles each) (fold (ratio)); higher = stronger signal-on switching upon ATP binding; sequences stand for … in TCGTCGGCAGCGTCAGATGTGTATAAGAGACAGTTTTTTTTTTTTTTTTTTTTTTTTT…TC
Conditions: aptamer strand: ATP DNA aptamer (quencher-CACCTGGGGGAGTATTGCGGAGGAAGG + anchor), 100 nM annealed; ATP concentration: 500 uM; one replicate
Method in brief: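 The quencher-labelled ATP aptamer, at 100 nM, was annealed to Cy3-labelled switching-strand clusters on a modified Illumina MiSeq flow-cell. The clusters were imaged in selection buffer, then after 15 min with 500 uM ATP at 22 °C, and this buffer/ATP cycle ran five times with NaOH stripping and re-annealing between runs. Per-cluster fluorescence ratios, summed target-cycle over summed buffer-cycle Cy3 intensity, were averaged per switch-domain sequence. Clusters outside 100-1000 RFU were excluded.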
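Also: ATP exposure 15 min at 22 °C before imaging.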

Sequence	switch fluorescence ratio
AGGAATCAAC	0.964
AGGCGGGTTC	1.03
CTCCTCGGTG	1.47
GTCCGGCGTA	1.05
CCTGTCCGGT	0.989
GAACAAACTA	1.02
TCCTAATTAC	1.43
GACTAAAAAT	1.03
AGTGACTTCT	1
AAGAGCACCA	1.01
TGATGGTC	0.963
GTAAGCGCCG	1.01
CGGCTCAAGT	1.02
TCGCGGCGTG	1.02
TCTGTGATTG	0.997
TAGACGGAGC	1.07
ACCGCCTGGT	0.993
TTGTTAGGCG	1
GTCGAAGCCT	1.08
GCGGGTGGAG	1.04
TAAAAGAGTT	1.01
ATCGGTATCG	0.957
TCATAGAATA	0.996
GATGGTGG	0.987
AAGCCTAGGT	1.02
CTATCATAT	1.02

Sequence	switch fluorescence ratio
GAAGTGTAAT	1.03
CATTCACTC	1.07
TTGGAGTTGA	1.02
AGCGGCCCTG	0.97
CTTAACGTTA	1.05
TTTCAATGAT	1.01
TATAATTCCG	0.989
TCCTTTTATT	1.03
GAAGATAGAG	1.01
CCAGTCCATA	0.997
TCGAGCCAGA	0.974
CGTTGGACCT	1.05
GCTAGTACCT	1.17
GCGTGTTTGT	0.969
CGAACGGCCG	1.03
GTGTAAAACC	0.98
ATGCCCGCCG	1.02
TTGATGACAT	1.04
CAAAGATCTA	0.983
CTATCAACGG	0.985
CCCCTTTTT	0.99
AAGCCACCTC	1.16
TCCAGTAGGC	1.09
CCTGCACTT	1.13
TTTGCCTACT	1.06
TTGTGAGCAG	0.997

Sequence	switch fluorescence ratio
TAGAGTACTC	1.01
GGTATATGCT	0.982
CCATAATTGG	1.06
TATCTCGTG	1.02
TAACGTTTCG	0.968
GCTGGGGTCT	1.01
AGCCCCAAT	1.09
TCTTGCTTG	0.985
TTGGATAAAT	0.955
AAAGTGAAAA	1.05
GATGGGGGT	0.991
GTAAGTGTGC	1.01
TTAGGGCAGC	0.953
AGAAGATTAA	0.995
CGGCGATCTT	0.996
TACCACGCAA	4.62
ATTGTCTGCG	0.987
ATCGTGCGTG	0.988
ATACAAATCC	1
GTAGAATTTG	1.01
AGTTTAACTT	0.979
ACTGGGCCCA	1.06
TCTTAGGAG	0.95
TTAAAGCTTG	0.99
ATATCCAACG	0.988
GGACGGTGGT	0.983

Sequence	switch fluorescence ratio
TTCAGCCCTT	1.01
GCCGAACATG	1.05
GTGCCTCAGG	1.16
CATTCCCTGT	0.993
TCAGACTGCC	1.15
TATGTAGGCC	1.39
GACCTGGAAC	1.08
GCCTCGAATA	1.14
TACCTCATAT	1.08
ATGTTTAGTG	0.95
ATCATAGGAA	0.975
CTGGAGGAAG	1.02
GGAGGTGGT	1.01
TTTATCGAGT	1.07
GTGCCTGGGG	1.02
CGGCCAAACA	1.06
TCTTTGTGTG	1.01
TTTTCACGTG	1.01
GTGCGGGCTA	1.05
ATCCGGCTGC	1.11
AAAGCCTCAT	1.01
GGGTTCATAA	0.968
TGTATGAGTG	0.946
CGAGGTACAG	1.03
AATTTGGATT	0.994
GGTCGACGGT	1.04

Sequence	switch fluorescence ratio
TAAATGAATA	0.978
TGCCAAGGTC	0.997
AATGAAGACA	1.03
CATGGTACGA	1.07
TTTTATACTC	1.25
TCATTAGACG	1.05
TTTCGCGATA	1.06
AACGGCCTT	1
AAGGTTTC	0.97
AGCTTCAGCC	1
CCACCGTATA	4.97
AACGGGAGCG	0.941
TTAGGCGAGC	1.05
ATTCAGAAT	1.01
ATGGACAGAC	1.16
AAGGCGCCGT	1.04
AGCGCATCAC	3.46
GCTCGCATGA	1.33
AGGTCTGGGT	1
GGCGCTAGGG	1.01
TAGCGGTACT	3.34
ATCTGTAATG	1.01
TTCACTGAAT	1.04
TAGGAACTTC	1.02
TCTTCGATAA	1.13
CGCTCTTGCC	1

Sequence	switch fluorescence ratio
TCGTGATGTT	1.03
TGTGGCGGGG	0.993
AGCGACCT	1.36
TGGACTCTT	0.965
GTTATACAAG	1.03
TCGTATGACT	0.967
TGTCAAGGAT	1
AGATGAATG	1.03
GGGAATTGGC	1.14
GCTAATCTGT	1.01
TTTCAGCTT	1.03
AGAGACCGCG	0.906
GTGGGGTGGT	0.993
AGGATTATTC	0.969
AGGGGCCTGG	1.03
GCGGTTGTGT	1.11
CCATGACCTT	1.12
TTAGCCGAAG	1.03
CTCATAACA	1.02
TGAAGTCGTC	1.01
TTTTGGGACA	1.01
CCAGTGCGTT	1.02
CAATGTTACT	1.02
TATAAACTTA	0.974
CGATGTCTAC	1.47
GAAAGGCTTA	0.984

Sequence	switch fluorescence ratio
TAAGCGATGG	1.24
CGGGTCCCGT	1.04
CTATGTTCAT	1
AAGTTAATAG	1
TCGATCCCCT	1.01
GGTTGAACGG	0.958
GCCGTAATCG	1.01
ACTTGATAAA	1
TCTGGGAGCG	0.984
GATACCATCG	1
GGTCTGGACT	1.03
GGCTAATATG	1.02
TCGATGTACG	1
AGATAGGTCC	1.05
CCCCAAGGAT	1.19
TCTTAACTCA	1.02
TCTATAGCGA	1.74
GGCATTTATC	0.964
ACGAGACTTA	1.08
CTTCCACTT	1.07
TTGTCAGTCG	0.978
TCCCGCTCAG	1.23
GAAGCAGCTA	1.17
GCGGGAAGGA	1.01
AAGCACGGTG	1.07
TAGCGATGTA	1.04

Sequence	switch fluorescence ratio
AGGGACATTT	0.975
GTAATCGTTT	0.983
GTGTCTTTTA	1.03
GACTACTTGA	1
AGCGGAGACG	1.02
AGTCCAGTAA	1.02
GGGACGGCAT	1.04
CAGCGGTACC	1.19
TTTGCTAGGA	1.02
CCATGGCGTA	1.05
TATTTTGAT	0.991
TATTGCGCTG	0.959
GCGAGCGCGT	0.99
ATTCCGTGCC	1.28
CATGGGCACG	0.986
TTACATACGT	1.45
TCAGGGCACC	1.02
CCGGGCCTGG	1.06
ACATCGTAAC	1.04
